According to ChEMBL document CHEMBL5291721, “A preclinical secondary pharmacology resource illuminates target-adverse drug reaction associations of marketed drugs” (Nat Commun, 2023):

Assays:
[1] = biological target: T1, Alpha-1A adrenergic receptor (Homo sapiens, UniProt P35348); type: functional, cell-based
T1 sequence (P35348 whole entry): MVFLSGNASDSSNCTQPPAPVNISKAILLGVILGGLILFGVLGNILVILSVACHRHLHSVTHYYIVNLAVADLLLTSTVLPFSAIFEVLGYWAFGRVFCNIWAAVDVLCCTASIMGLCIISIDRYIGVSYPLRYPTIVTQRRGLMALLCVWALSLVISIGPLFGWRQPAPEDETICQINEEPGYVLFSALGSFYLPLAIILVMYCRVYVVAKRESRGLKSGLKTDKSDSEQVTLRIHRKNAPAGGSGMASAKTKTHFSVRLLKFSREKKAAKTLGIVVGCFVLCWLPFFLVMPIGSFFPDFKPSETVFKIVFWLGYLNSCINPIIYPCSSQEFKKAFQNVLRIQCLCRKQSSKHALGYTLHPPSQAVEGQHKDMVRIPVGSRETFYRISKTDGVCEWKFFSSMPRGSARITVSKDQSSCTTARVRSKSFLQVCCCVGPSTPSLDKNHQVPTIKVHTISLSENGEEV

[2] = biological target: Sodium-dependent noradrenaline transporter (Homo sapiens, UniProt P23975)
[3] = biological target: Sodium-dependent serotonin transporter (Homo sapiens, UniProt P31645)
[4] = biological target: Equilibrative nucleoside transporter 1 (Homo sapiens, UniProt Q99808)
Sequence of Equilibrative nucleoside transporter 1 (Q99808 whole entry): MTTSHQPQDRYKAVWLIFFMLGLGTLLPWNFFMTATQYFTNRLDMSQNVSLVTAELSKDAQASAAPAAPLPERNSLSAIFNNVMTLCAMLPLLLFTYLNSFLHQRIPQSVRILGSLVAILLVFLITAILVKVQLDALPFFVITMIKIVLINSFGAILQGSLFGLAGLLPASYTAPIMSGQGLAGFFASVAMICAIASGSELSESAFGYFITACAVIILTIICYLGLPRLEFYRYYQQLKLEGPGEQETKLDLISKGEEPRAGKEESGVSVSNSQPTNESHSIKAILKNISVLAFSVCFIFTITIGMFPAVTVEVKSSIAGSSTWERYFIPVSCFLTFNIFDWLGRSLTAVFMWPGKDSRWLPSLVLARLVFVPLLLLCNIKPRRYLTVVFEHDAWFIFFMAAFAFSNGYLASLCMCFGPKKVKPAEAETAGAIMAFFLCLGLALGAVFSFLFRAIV

D(3) dopamine receptor = D(3) dopamine receptor (Homo sapiens, UniProt P35462)
Sequence of D(3) dopamine receptor (P35462 whole entry): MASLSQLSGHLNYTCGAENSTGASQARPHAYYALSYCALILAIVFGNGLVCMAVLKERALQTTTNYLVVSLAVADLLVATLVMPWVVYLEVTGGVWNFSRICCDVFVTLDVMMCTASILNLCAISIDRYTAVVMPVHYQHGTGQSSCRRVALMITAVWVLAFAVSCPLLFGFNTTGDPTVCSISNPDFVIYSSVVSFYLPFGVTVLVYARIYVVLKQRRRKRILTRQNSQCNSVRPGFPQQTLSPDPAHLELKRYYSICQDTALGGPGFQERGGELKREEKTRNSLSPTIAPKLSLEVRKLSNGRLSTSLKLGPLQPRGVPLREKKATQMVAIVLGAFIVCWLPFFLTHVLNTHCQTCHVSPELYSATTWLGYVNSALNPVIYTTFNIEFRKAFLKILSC

[5] = biological target: Voltage-gated inwardly rectifying potassium channel KCNH2 (Homo sapiens, UniProt Q12809); type: functional
[6] = biological target: 5-hydroxytryptamine receptor 3A (Homo sapiens, UniProt P46098); type: functional
Sequence of 5-hydroxytryptamine receptor 3A (P46098 whole entry): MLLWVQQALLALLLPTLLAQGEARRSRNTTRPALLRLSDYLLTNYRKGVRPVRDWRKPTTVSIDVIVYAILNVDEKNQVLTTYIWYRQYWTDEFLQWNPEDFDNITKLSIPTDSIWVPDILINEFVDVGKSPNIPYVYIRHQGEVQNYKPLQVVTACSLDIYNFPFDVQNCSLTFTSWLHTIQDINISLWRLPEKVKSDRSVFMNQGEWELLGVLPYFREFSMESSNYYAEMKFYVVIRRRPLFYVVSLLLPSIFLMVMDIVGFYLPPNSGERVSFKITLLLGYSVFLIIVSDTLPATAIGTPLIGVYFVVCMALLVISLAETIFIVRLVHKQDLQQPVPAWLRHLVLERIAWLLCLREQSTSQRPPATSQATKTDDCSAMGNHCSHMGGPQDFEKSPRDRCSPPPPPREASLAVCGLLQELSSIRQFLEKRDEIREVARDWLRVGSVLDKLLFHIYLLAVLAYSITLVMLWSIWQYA

[7] = biological target: T1, Alpha-1A adrenergic receptor
[8] = biological target: T1, Alpha-1A adrenergic receptor; type: functional, cell-based; remark: listed apart in the source
[9] = biological target: 3',5'-cyclic-AMP phosphodiesterase 4D (Homo sapiens, UniProt Q08499); type: functional
[10] = biological target: cGMP-inhibited 3',5'-cyclic phosphodiesterase 3A (Homo sapiens, UniProt Q14432); type: functional
[11] = biological target: 5-hydroxytryptamine receptor 2C (Homo sapiens, UniProt P28335)
Sequence of 5-hydroxytryptamine receptor 2C (P28335 whole entry): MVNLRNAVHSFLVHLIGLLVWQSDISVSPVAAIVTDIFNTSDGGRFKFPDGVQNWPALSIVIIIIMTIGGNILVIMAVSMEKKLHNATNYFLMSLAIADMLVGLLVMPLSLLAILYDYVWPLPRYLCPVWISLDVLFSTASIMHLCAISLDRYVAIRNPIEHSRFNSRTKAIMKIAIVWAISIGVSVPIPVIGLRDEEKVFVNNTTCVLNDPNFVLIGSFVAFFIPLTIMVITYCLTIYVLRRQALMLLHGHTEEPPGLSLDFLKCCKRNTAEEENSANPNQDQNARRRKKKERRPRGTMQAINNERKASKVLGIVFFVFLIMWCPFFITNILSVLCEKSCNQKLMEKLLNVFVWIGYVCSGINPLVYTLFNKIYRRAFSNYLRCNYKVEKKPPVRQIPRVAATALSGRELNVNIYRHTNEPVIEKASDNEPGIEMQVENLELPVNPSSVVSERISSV

[12] = biological target: Sodium-dependent dopamine transporter (Homo sapiens, UniProt Q01959)
Mu-type opioid receptor = Mu-type opioid receptor (Homo sapiens, UniProt P35372)
[13] = biological target: Muscarinic acetylcholine receptor M5 (Homo sapiens, UniProt P08912)
Sequence of Muscarinic acetylcholine receptor M5 (P08912 whole entry): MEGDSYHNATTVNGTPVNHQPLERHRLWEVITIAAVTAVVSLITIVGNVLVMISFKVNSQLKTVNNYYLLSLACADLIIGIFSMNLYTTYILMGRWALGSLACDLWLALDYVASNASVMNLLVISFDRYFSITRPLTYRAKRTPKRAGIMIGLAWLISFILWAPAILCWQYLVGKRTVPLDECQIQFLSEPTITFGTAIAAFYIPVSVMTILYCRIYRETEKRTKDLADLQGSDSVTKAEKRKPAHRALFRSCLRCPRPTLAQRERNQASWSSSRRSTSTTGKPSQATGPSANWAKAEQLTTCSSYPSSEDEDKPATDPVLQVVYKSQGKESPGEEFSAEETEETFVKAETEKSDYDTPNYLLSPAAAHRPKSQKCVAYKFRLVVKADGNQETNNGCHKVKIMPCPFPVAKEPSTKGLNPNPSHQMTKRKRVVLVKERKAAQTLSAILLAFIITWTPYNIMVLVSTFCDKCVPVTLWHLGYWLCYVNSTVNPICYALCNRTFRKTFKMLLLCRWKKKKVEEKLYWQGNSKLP

[14] = biological target: Voltage-dependent L-type calcium channel subunit alpha-1C (Rattus norvegicus, UniProt P22002); type: functional
[15] = biological target: Gamma-aminobutyric acid type B receptor subunit 1 (Homo sapiens, UniProt Q9UBS5)
Substance-K receptor = Substance-K receptor (Homo sapiens, UniProt P21452)
Sequence of Substance-K receptor (P21452 whole entry): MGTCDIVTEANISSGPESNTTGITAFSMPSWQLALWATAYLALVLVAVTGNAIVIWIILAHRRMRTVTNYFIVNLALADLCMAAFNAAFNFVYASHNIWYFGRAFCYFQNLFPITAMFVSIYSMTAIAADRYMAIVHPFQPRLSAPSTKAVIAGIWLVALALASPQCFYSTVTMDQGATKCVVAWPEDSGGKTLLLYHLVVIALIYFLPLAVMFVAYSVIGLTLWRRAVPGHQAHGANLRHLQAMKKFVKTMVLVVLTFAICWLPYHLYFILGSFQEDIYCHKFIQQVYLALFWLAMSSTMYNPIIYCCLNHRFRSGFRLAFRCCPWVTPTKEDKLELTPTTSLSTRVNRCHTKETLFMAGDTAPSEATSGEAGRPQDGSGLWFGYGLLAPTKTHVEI

D(1A) dopamine receptor [16] = biological target: T2, D(1A) dopamine receptor (Homo sapiens, UniProt P21728); type: functional, cell-based
T2 sequence (P21728 whole entry): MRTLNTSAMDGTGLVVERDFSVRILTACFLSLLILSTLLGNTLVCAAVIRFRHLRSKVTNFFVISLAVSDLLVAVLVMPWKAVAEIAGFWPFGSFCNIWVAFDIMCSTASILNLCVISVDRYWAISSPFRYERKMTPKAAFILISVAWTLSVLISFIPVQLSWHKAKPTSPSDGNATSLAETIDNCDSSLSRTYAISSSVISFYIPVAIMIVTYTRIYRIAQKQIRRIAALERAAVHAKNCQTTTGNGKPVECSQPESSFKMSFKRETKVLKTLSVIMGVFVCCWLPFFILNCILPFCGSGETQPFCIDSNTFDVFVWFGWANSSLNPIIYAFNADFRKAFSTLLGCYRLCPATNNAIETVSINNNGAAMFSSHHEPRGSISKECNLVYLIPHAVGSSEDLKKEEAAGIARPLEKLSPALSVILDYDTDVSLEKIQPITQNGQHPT

[17] = biological target: T3, Gamma-aminobutyric acid receptor subunit alpha-1 (Rattus norvegicus, UniProt P62813)
T3 sequence (P62813 whole entry): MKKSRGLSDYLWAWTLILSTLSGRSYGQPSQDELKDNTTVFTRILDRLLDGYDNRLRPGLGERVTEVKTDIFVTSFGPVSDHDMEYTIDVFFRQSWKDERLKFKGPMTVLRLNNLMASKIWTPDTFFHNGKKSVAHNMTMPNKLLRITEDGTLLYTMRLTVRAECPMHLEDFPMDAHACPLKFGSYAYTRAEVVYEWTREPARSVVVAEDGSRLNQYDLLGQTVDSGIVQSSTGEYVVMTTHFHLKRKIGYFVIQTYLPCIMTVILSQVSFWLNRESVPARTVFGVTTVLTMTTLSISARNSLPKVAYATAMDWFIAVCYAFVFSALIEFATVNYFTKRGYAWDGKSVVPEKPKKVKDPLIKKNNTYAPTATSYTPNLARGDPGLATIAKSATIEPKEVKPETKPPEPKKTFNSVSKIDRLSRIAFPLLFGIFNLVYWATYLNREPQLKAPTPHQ

D(1A) dopamine receptor [18] = biological target: T2, D(1A) dopamine receptor
[19] = biological target: Rod cGMP-specific 3',5'-cyclic phosphodiesterase subunit alpha (Homo sapiens, UniProt P16499); type: functional
Sequence of Rod cGMP-specific 3',5'-cyclic phosphodiesterase subunit alpha (P16499 whole entry): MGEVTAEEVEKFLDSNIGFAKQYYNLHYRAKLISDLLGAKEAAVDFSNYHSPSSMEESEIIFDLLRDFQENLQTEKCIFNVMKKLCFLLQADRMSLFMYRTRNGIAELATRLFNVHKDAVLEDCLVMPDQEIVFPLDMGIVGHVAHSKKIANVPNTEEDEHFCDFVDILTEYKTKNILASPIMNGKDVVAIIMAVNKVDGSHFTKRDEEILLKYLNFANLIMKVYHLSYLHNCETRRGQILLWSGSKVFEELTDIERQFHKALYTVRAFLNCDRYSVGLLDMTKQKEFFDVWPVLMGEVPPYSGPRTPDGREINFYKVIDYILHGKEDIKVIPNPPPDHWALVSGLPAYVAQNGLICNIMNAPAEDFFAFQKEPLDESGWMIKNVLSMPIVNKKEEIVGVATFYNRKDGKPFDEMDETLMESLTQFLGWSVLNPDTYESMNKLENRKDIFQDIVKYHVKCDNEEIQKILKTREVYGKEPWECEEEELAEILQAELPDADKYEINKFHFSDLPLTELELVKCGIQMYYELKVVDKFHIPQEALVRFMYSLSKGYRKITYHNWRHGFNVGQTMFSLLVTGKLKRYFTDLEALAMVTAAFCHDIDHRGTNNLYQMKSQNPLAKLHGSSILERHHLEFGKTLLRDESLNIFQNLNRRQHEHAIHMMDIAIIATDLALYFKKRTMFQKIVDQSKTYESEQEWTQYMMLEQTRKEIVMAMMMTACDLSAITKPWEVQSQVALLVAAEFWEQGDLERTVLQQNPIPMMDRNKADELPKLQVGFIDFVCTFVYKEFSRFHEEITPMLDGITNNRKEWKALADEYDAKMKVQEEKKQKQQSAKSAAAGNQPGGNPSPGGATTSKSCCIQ

D(4) dopamine receptor = D(4) dopamine receptor (Homo sapiens, UniProt P21917)
Substance-P receptor = Substance-P receptor (Homo sapiens, UniProt P25103)
[20] = biological target: Delta-type opioid receptor (Homo sapiens, UniProt P41143)
[21] = biological target: 5-hydroxytryptamine receptor 5A (Homo sapiens, UniProt P47898)
Histamine H3 receptor = Histamine H3 receptor (Homo sapiens, UniProt Q9Y5N1)
[22] = biological target: Muscarinic acetylcholine receptor M4 (Homo sapiens, UniProt P08173)
[23] = biological target: Neuronal acetylcholine receptor subunit alpha-4 (Homo sapiens, UniProt P43681)
D(1B) dopamine receptor = D(1B) dopamine receptor (Homo sapiens, UniProt P21918)
[24] = biological target: Amine oxidase [flavin-containing] A (Homo sapiens, UniProt P21397); type: functional
[25] = biological target: Voltage-dependent N-type calcium channel subunit alpha-1B (Rattus norvegicus, UniProt Q02294); type: functional
[26] = biological target: 5-hydroxytryptamine receptor 7 (Homo sapiens, UniProt P34969)
[27] = biological target: Glutamate receptor ionotropic, NMDA 1 (Rattus norvegicus, UniProt P35439)
[28] = biological target: T3, Gamma-aminobutyric acid receptor subunit alpha-1; type: functional
Vasopressin V1a receptor = Vasopressin V1a receptor (Homo sapiens, UniProt P37288)
[29] = biological target: Synaptic vesicular amine transporter (Rattus norvegicus, UniProt Q01827); type: functional
Sequence of Synaptic vesicular amine transporter (Q01827 whole entry): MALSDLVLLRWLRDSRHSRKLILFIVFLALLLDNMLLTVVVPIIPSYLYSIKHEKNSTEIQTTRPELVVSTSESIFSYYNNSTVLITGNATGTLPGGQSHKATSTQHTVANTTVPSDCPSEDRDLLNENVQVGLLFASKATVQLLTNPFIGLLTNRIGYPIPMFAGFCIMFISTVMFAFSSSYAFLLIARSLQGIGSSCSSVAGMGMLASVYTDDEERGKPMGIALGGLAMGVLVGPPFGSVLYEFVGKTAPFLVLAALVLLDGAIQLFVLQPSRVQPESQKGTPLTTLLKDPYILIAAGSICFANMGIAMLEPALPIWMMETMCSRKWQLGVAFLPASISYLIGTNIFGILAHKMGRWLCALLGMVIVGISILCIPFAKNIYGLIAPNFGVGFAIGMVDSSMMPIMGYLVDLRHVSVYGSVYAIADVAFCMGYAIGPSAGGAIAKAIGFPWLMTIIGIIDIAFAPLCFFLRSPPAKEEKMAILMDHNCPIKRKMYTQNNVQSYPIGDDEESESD

Bile salt export pump = Bile salt export pump (Homo sapiens, UniProt O95342); type: functional
Further: assay procedure not described here.

Work on `CCOC(=O)C1(c2ccccc2)CCN(C)CC1` [MEPERIDINE] yielded an AC50 [1] of over 30 µM, an AC50 [2] of over 30 µM and an AC50 [3] of 1.9 µM. It also gave an AC50 [4] of over 30 µM, an AC50 (D(3) dopamine receptor) of over 30 µM and an AC50 [5] of 28.7 µM. It also gave an AC50 [6] of over 30 µM, an AC50 [7] of 2.56 µM and an AC50 [8] of 7.8 µM. For the same compound, the AC50 [9] was over 30 µM, the AC50 [10] was over 30 µM and the AC50 [11] was over 30 µM. It also gave an AC50 [12] of over 30 µM.
In the case of `CNCCC(Oc1ccc(C(F)(F)F)cc1)c1ccccc1` (stereo unspecified) [FLUOXETINE], the AC50 (Mu-type opioid receptor) is reported as 14 µM, the AC50 [13] is reported as 5.25 µM and the AC50 [14] is reported as 4.67 µM. It also gave an AC50 [15] of over 10 µM, an AC50 (Substance-K receptor) of over 10 µM and an AC50 (D(1A) dopamine receptor [16]) of 2.3 µM. For the same compound, the AC50 [17] was over 10 µM, the AC50 (D(1A) dopamine receptor [18]) was 8.58 µM and the AC50 [19] was over 10 µM. The AC50 (D(4) dopamine receptor) was over 10 µM, the AC50 (Substance-P receptor) was over 10 µM and the AC50 [20] was over 10 µM. It also gave an AC50 [21] of over 10 µM, an AC50 (D(3) dopamine receptor) of over 10 µM and an AC50 (Histamine H3 receptor) of over 10 µM. For the same compound, the AC50 [22] was over 10 µM, the AC50 [23] was over 10 µM and the AC50 (D(1B) dopamine receptor) was over 10 µM. For the same compound, the AC50 [24] was over 10 µM, the AC50 [25] was over 10 µM and the AC50 [6] was over 10 µM. It also gave an AC50 [26] of over 10 µM, an AC50 [27] of over 10 µM and an AC50 [28] of over 10 µM. It also gave an AC50 (Vasopressin V1a receptor) of over 10 µM.
In the case of `O=c1[nH]c2ccccc2n1CCCN1CCC(n2c(=O)[nH]c3cc(Cl)ccc32)CC1` [DOMPERIDONE], the AC50 (D(3) dopamine receptor) is reported as 0.024 µM.
`Cc1nc2n(c(=O)c1CCN1CCC(c3noc4cc(F)ccc34)CC1)CCCC2` [RISPERIDONE] showed an AC50 [29] of 0.318 µM and an AC50 (Bile salt export pump) of 140 µM.
